Laboratory results reported in PubChem BioAssay AID504832 (National Center for Advancing Translational Sciences (NCATS), 2011).
The campaign covered roughly 310,000 compounds. About 18,000 (5.8%) were called active. The inconclusive results got no clear call from the source; some entries with a clear call stand among them for comparison. The call rests on the fitted dose curve; in most records, active means well fitted inhibition curve with a large enough effect; inconclusive means small, poorly fitted or top-dose-only effect, or another doubt; inactive means no such curve, though single readings can be large or run the other way. No potency is given beside an inconclusive call; the fits are too rough.

assay: Primary qHTS for delayed death inhibitors of the malarial parasite plastid, 48 hour incubation; settings: P. falciparum luciferase growth in erythrocytes; series mostly up to 28.7 µM
How it was run: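 Here the parasites carry a stable luciferase gene and grow inside erythrocytes in Albumax-based RPMI medium with compound for one erythrocytic cycle. Activity is scored as loss of luminescent signal.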
Potency means the concentration at half of the fitted maximal effect; tags describe the fitted curve by direction and shape.

Compound | Potency
CCN(Cc1ccc(NC(C)=O)cc1)CC1CCCN(CCc2cccc(F)c2)C1 (centres undefined) | inconclusive [inhibitor, partial curve, poor fit]
Cc1[nH]n(-c2ccccc2)c(=O)c1/C=N/N(C)c1ccccc1 | inconclusive [inhibitor, single point]
COc1cccc(NC(=O)C2Cc3ccccc3CN2C(=O)c2ccco2)c1 (centres undefined) | inconclusive [inhibitor, single point]
Cc1ccc(C(=O)OCn2ncc(Cl)c(Cl)c2=O)cc1 | inconclusive [inhibitor, partial curve, poor fit]
CN(C)S(=O)(=O)c1ccc(N2CCCC2)c(C(=O)Nc2nc3ccc(F)cc3s2)c1 | inactive
Cc1ccc(C)c(NS(=O)(=O)c2ccccc2C)c1 | inactive
CCOc1ccc(S(=O)(=O)N(C)CC(=O)NC2CCCC2)cc1 | inconclusive [inhibitor, single point]
CCOC(=O)c1oc2ccccc2c1NC(=O)c1cccc(OC)c1 | inconclusive [inhibitor, partial curve]
COc1ccc(OC)c(NC(=O)Nc2cccnc2)c1 | inactive
O=C(O)C1CSC(c2ccccc2Cl)N1C(=O)c1ccc(Cl)cc1 (centres undefined) | inactive
CC1CN(C(=O)CCc2cc(C(C)(C)C)c(O)c(C(C)(C)C)c2)CC(C)O1 (centres undefined) | inconclusive [inhibitor, single point]
Cc1ccc(S(=O)(=O)N2CCC(C(=O)Nc3ccncc3)CC2)cc1 | inconclusive [inhibitor, single point]
Cc1ccc(S(=O)(=O)Nc2c(C)nc3nc(C)[nH]n3c2=O)c(C)c1 | inactive
CCN(Cc1ccc(OC)c(F)c1)C(=O)c1oc2ccccc2c1COC | inactive
CC(C)(C)N1C(=O)[C@H]2[C@@H](c3ccc(Br)cc3)N3C(=O)N(c4ccc(Br)cc4)C(=O)[C@@]3(Cc3ccccc3)[C@H]2C1=O | inconclusive [inhibitor, partial curve, poor fit]
CCC1=C(OC(=O)N(CC)CC)N2C(=O)OC(=NCC(=O)OC)[C@]2(C)[C@H]2C1=CC[C@H]1C(=O)N(CC)C(=O)[C@H]12 | inactive
Cc1cc(C)nc(NC(=S)Nc2cccc(Cl)c2Cl)c1 | inactive
COc1cc(OC)c(NC(=O)CN(C)S(=O)(=O)c2ccc(-c3ccc(=O)[nH]n3)s2)cc1Cl | active: 2.33 µM
O=C(O)c1ccc(NC(=O)c2cn(-c3ccccc3)nc2-c2ccccc2)cc1 | inactive
C=CCN1C(=O)c2ccc(C(=O)N3CCN(S(=O)(=O)c4ccccc4Br)CC3)cc2C1=O | inactive
O=C(Nc1ccc(F)cc1)OCCN1CCN(Cc2ccccc2)CCC1=O | inactive
CCOc1ccc(-c2nc(-c3ccc(OC)c(OC)c3)no2)cc1OCC | inconclusive [inhibitor, partial curve]
CCCC(O)(CCC)C(=O)NN(C(=O)CCl)c1cccc(C)c1 | inconclusive [inhibitor, partial curve, poor fit]

Compound | Potency
CCCc1cc(CN(C)C(=O)CC2C(=O)NCCN2Cc2ccccc2C)[nH]n1 (centres undefined) | inactive
Cc1ccc(NC(=S)NCCSc2ccc(Cl)cc2)c(C)c1 | inconclusive [inhibitor, single point]
C=CCOc1cccc(NC(=O)c2ccccc2SC)c1 | inconclusive [inhibitor, partial curve, poor fit]
CC(C)N1CCC2(CC1)N=C(c1ccc3c(c1)OCO3)CC(c1cc(Cl)ccc1O)N2 (centres undefined) | inconclusive [inhibitor, full curve]
CCC(c1nnc(SCC(=O)NCCc2ccc(OC)c(OC)c2)n1Cc1ccccc1)N(C)C (centres undefined) | inconclusive [inhibitor, partial curve, poor fit]
COc1ccc(CN2CCCC(C(=O)c3ccc(Cl)cc3)C2)c(OC)c1 (centres undefined) | inconclusive [inhibitor, single point]
Cc1cc2ccccn2c1C(=O)c1ccccc1Br | inactive
C/C(O)=C(/N=O)C(=O)Nc1ccccc1 | inactive
CC(OC(=O)C1CC1C)C(=O)Nc1ncc(Cl)cc1Cl (centres undefined) | inactive
Cc1ccc(NS(=O)(=O)c2cc(C(=O)Nc3cccc(N(C)S(C)(=O)=O)c3)ccc2C)c(C)c1 | inactive
CCCCCCn1c(-c2cccs2)n[nH]c1=S | inactive
CN1C(C(=O)NCc2ccccc2)CC2Cn3c(nc4cc5ccccc5cc43)C21 (centres undefined) | inconclusive [inhibitor, partial curve, poor fit]
CN(C)S(=O)(=O)c1ccc(NC(=O)Cc2ccc(S(=O)(=O)N3CCOCC3)s2)cc1 | inconclusive [inhibitor, single point]
CC(=O)N1CCc2cc(S(=O)(=O)CCC(=O)N3CCN(c4ccccc4F)CC3)ccc21 | inconclusive [inhibitor, partial curve, poor fit]
COc1ccc(C2CC(c3ccccc3)=NN2C(=O)COC(=O)c2cccc(S(=O)(=O)N3CCOCC3)c2)cc1 (centres undefined) | inconclusive [inhibitor, partial curve, poor fit]
O=C1N/C(=N/Nc2ccccc2)S/C1=C\c1ccccc1 | inconclusive [inhibitor, single point]
Cc1ccc(S(=O)(=O)N2CCOCC2)cc1C(=O)OCC(=O)NC1CCCCC1 | inconclusive [inhibitor, single point]
CN(c1ccc(OCC(=O)Nc2nc3ccccc3s2)cc1)S(=O)(=O)c1ccccc1 | inconclusive [inhibitor, single point]
Cc1nn(CC(O)COc2ccc3c(c2)CCC3)c(C)c1C (centres undefined) | inactive
Fc1ccc(CNCCc2ccc3c(c2)OCO3)cc1 | inactive
CSc1nnc(C2CCCN(CC(=O)Nc3ccccc3N3CCOCC3)C2)n1C(C)C (centres undefined) | inconclusive [inhibitor, partial curve, poor fit]
CCN1C(=O)c2cccc3c(S(=O)(=O)Nc4ccccc4)ccc1c23 | inconclusive [inhibitor, partial curve, poor fit]
O=C(Nc1cccc(S(=O)(=O)N2CCOCC2)c1)c1cnn2c(C(F)F)cc(-c3ccccc3)nc12 | inactive

Compound | Potency
Cc1cc(-c2ccccc2)nc(-c2ccccc2)c1C | inactive
COc1ccc(C2=NS(=O)(=O)N(C)C(C(=O)NCc3cccs3)=C2)cc1OC | inconclusive [inhibitor, full curve, poor fit]
CCCCNC(=O)CSc1nnc(-c2ccc(S(=O)(=O)N3CCCC3)cc2)n1C | inconclusive [inhibitor, single point]
CC(OC(=O)c1cccc(-n2cnnn2)c1)C(=O)Nc1ccc(F)cc1 (centres undefined) | inactive
COc1ccc(S(=O)(=O)NC2CC(=O)N(c3ccc4c(c3)OCCO4)C2)cc1 (centres undefined) | inconclusive [inhibitor, single point]
Cc1cccc(/C=N/NC(=O)c2ccc(NC(=O)c3ccc(Cl)cc3)cc2)n1 | inactive
NS(=O)(=O)c1ccc(CCNC(=O)CCCCCn2c(=S)[nH]c3ccc(Br)cc3c2=O)cc1 | inconclusive [inhibitor, partial curve, poor fit]
CCCC(=O)N(Cc1cc(=O)[nH]c2ccccc12)c1ccccc1 | inconclusive [inhibitor, single point]
O=C(CNC(=O)c1ccc(Br)o1)NCC(=O)OCc1ccccc1 | inconclusive [inhibitor, full curve]
O=C(c1cccc(F)c1)N1CCN(S(=O)(=O)Cc2ccccc2)CC1 | active: 2.94 µM
CCOc1ccc(C2=CC(=O)C[C@H](c3ccc(OC)cc3)C2)cc1 | inactive
COc1cc(CNCc2ccncc2)cc(OC)c1OC | inactive
CCc1ccc(Nc2n[n+](-c3ccccc3)c(-c3ccc(N(CC)CC)cc3)s2)cc1 | inconclusive [inhibitor, partial curve, poor fit]
Cc1cc(C)cc(NC(=O)CSc2nc3nc(C)cc(C)n3n2)c1 | inconclusive [inhibitor, partial curve, poor fit]
COc1cccc(N(C(=O)c2ccco2)C(C(=O)NC2CCCC2)c2ccc(N(C)C)cc2)c1 (centres undefined) | inactive
CC(=O)OCC1=C(C(=O)O)N2C(=O)[C@@H](NC(=O)Cc3cccs3)[C@H]2SC1 | inactive
CN(C)c1ccc(NC(=S)NC23CC4CC(CC(C4)C2)C3)cc1 | active: 5.22 µM
CC(C)CCNC(=O)C1CCN(C(=O)N(C)C)CC1 | inconclusive [inhibitor, partial curve, poor fit]
C=C(C)CNC(=S)N1CCNC(=O)C1CC(=O)OC (centres undefined) | inactive
O=C(NC1CCCC1)C(c1ccc(F)cc1)N(Cc1ccccc1)C(=O)c1csnn1 (centres undefined) | inconclusive [inhibitor, partial curve, poor fit]
CC(C)(C)OC(=O)N[C@@H](CCCCNC(=O)OCc1ccccc1)c1nnc([C@H](CCCCNC(=O)OCc2ccccc2)NC(=O)OC(C)(C)C)o1 | inconclusive [inhibitor, full curve]
COc1ccc(C(CCc2ccc(C)o2)NC(=O)Nc2ccc(OC)cc2OC)cc1 (centres undefined) | inconclusive [inhibitor, single point]
CC1=C(C(=O)NC(C)CCc2ccccc2)C2(CCC(C)CC2)OC1=O (centres undefined) | inconclusive [inhibitor, partial curve, poor fit]
